# Results as given in the supplement of paper PMC8728848.
# Some of the results follow.
# Experiments:
# Test in all cases: glycan array binding signal (z-score within array); higher = stronger binding
# Settings in all cases: glycan notation: IUPAC condensed, linker removed
# [1] = target: GlcNAc(b1-3)Gal(b1-3)GalNAc
# Outline: (§1)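 Columns mapping to the same glycan were averaged after glycan names were converted to IUPAC-condensed notation. The data come from 3228 arrays in the Consortium for Functional Glycomics database, limited to those with an available protein sequence. Binding is reported as a within-array Z-score averaged across arrays of one protein sequence and across linkers.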
# [2] = target: GlcNAc(b1-3)Gal(b1-4)Glc
# Outline: as §1
# [3] = target: GlcNAc(b1-3)Gal(b1-4)GlcNAc
# Outline: as §1
# [4] = target: GlcNAc(b1-3)Gal(b1-4)GlcNAc(b1-2)Man(a1-3)[GlcNAc(b1-3)Gal(b1-4)GlcNAc(b1-2)Man(a1-6)]Man(b1-4)GlcNAc(b1-4)GlcNAc
# Outline: as §1
# [5] = target: GlcNAc(b1-3)Gal(b1-4)GlcNAc(b1-2)Man(a1-3)[GlcNAc(b1-3)Gal(b1-4)GlcNAc(b1-2)Man(a1-6)]Man(b1-4)GlcNAc(b1-4)[Fuc(a1-6)]GlcNAc
# Outline: as §1
# [6] = target: GlcNAc(b1-3)Gal(b1-4)GlcNAc(b1-2)[GlcNAc(b1-3)Gal(b1-4)GlcNAc(b1-6)]Man(a1-6)[GlcNAc(b1-3)Gal(b1-4)GlcNAc(b1-2)Man(a1-3)]Man(b1-4)GlcNAc(b1-4)GlcNAc
# Outline: as §1
# [7] = target: GlcNAc(b1-3)Gal(b1-4)GlcNAc(b1-3)Gal(b1-4)GlcNAc
# Outline: as §1
# [8] = target: GlcNAc(b1-3)Gal(b1-4)GlcNAc(b1-3)Gal(b1-4)GlcNAc(b1-2)Man(a1-3)[GlcNAc(b1-3)Gal(b1-4)GlcNAc(b1-3)Gal(b1-4)GlcNAc(b1-2)Man(a1-6)]Man(b1-4)GlcNAc(b1-4)GlcNAc
# Outline: as §1
# [9] = target: GlcNAc(b1-3)Gal(b1-4)GlcNAc(b1-3)Gal(b1-4)GlcNAc(b1-2)Man(a1-3)[GlcNAc(b1-3)Gal(b1-4)GlcNAc(b1-3)Gal(b1-4)GlcNAc(b1-2)Man(a1-6)]Man(b1-4)GlcNAc(b1-4)[Fuc(a1-6)]GlcNAc
# Outline: as §1
# [10] = target: GlcNAc(b1-3)Gal(b1-4)GlcNAc(b1-3)Gal(b1-4)GlcNAc(b1-2)[GlcNAc(b1-3)Gal(b1-4)GlcNAc(b1-3)Gal(b1-4)GlcNAc(b1-6)]Man(a1-6)[GlcNAc(b1-3)Gal(b1-4)GlcNAc(b1-3)Gal(b1-4)GlcNAc(b1-2)Man(a1-3)]Man(b1-4)GlcNAc(b1-4)[Fuc(a1-6)]GlcNAc
# Outline: as §1
# [11] = target: GlcNAc(b1-3)Gal(b1-4)GlcNAc(b1-3)Gal(b1-4)GlcNAc(b1-3)Gal(b1-4)GlcNAc(b1-2)Man(a1-3)[GlcNAc(b1-3)Gal(b1-4)GlcNAc(b1-3)Gal(b1-4)GlcNAc(b1-3)Gal(b1-4)GlcNAc(b1-2)Man(a1-6)]Man(b1-4)GlcNAc(b1-4)GlcNAc
# Outline: as §1
# [12] = target: GlcNAc(b1-3)Gal(b1-4)GlcNAc(b1-3)Gal(b1-4)GlcNAc(b1-3)Gal(b1-4)GlcNAc(b1-2)Man(a1-3)[GlcNAc(b1-3)Gal(b1-4)GlcNAc(b1-3)Gal(b1-4)GlcNAc(b1-3)Gal(b1-4)GlcNAc(b1-2)Man(a1-6)]Man(b1-4)GlcNAc(b1-4)[Fuc(a1-6)]GlcNAc
# Outline: as §1
# [13] = target: GlcNAc(b1-3)Gal(b1-4)GlcNAc(b1-3)Gal(b1-4)GlcNAc(b1-3)Gal(b1-4)GlcNAc(b1-2)[GlcNAc(b1-3)Gal(b1-4)GlcNAc(b1-3)Gal(b1-4)GlcNAc(b1-3)Gal(b1-4)GlcNAc(b1-6)]Man(a1-6)[GlcNAc(b1-3)Gal(b1-4)GlcNAc(b1-3)Gal(b1-4)GlcNAc(b1-3)Gal(b1-4)GlcNAc(b1-2)Man(a1-3)]Man(b1-4)GlcNAc(b1-4)[Fuc(a1-6)]GlcNAc
# Outline: as §1
# [14] = target: GlcNAc(b1-3)Gal(b1-4)GlcNAc(b1-3)Gal(b1-4)GlcNAc(b1-3)Gal(b1-4)GlcNAc(b1-3)Gal(b1-4)GlcNAc(b1-2)Man(a1-3)[GlcNAc(b1-3)Gal(b1-4)GlcNAc(b1-3)Gal(b1-4)GlcNAc(b1-3)Gal(b1-4)GlcNAc(b1-3)Gal(b1-4)GlcNAc(b1-2)Man(a1-6)]Man(b1-4)GlcNAc(b1-4)GlcNAc
# Outline: as §1
# [15] = target: GlcNAc(b1-3)Gal(b1-4)GlcNAc(b1-3)Gal(b1-4)GlcNAc(b1-3)Gal(b1-4)GlcNAc(b1-3)Gal(b1-4)GlcNAc(b1-2)Man(a1-3)[GlcNAc(b1-3)Gal(b1-4)GlcNAc(b1-3)Gal(b1-4)GlcNAc(b1-3)Gal(b1-4)GlcNAc(b1-3)Gal(b1-4)GlcNAc(b1-2)Man(a1-6)]Man(b1-4)GlcNAc(b1-4)[Fuc(a1-6)]GlcNAc
# Outline: as §1
# [16] = target: GlcNAc(b1-3)Gal(b1-4)GlcNAc(b1-3)Gal(b1-4)GlcNAc(b1-3)Gal(b1-4)GlcNAc(b1-3)Gal(b1-4)GlcNAc(b1-2)[GlcNAc(b1-3)Gal(b1-4)GlcNAc(b1-3)Gal(b1-4)GlcNAc(b1-3)Gal(b1-4)GlcNAc(b1-3)Gal(b1-4)GlcNAc(b1-6)]Man(a1-6)[GlcNAc(b1-3)Gal(b1-4)GlcNAc(b1-3)Gal(b1-4)GlcNAc(b1-3)Gal(b1-4)GlcNAc(b1-3)Gal(b1-4)GlcNAc(b1-2)Man(a1-3)]Man(b1-4)GlcNAc(b1-4)[Fuc(a1-6)]GlcNAc
# Outline: as §1
# [17] = target: GlcNAc(b1-3)Gal(b1-4)GlcNAc(b1-3)Gal(b1-4)GlcNAc(b1-3)GalNAc
# Outline: as §1
# [18] = target: GlcNAc(b1-3)Gal(b1-4)GlcNAc(b1-3)GalNAc
# Outline: as §1
# [19] = target: GlcNAc(b1-3)Gal(b1-4)GlcNAc(b1-3)[GlcNAc(b1-3)Gal(b1-4)GlcNAc(b1-3)]GalNAc
# Outline: as §1
# [20] = target: GlcNAc(b1-3)Gal(b1-4)GlcNAc(b1-6)[Gal(b1-3)]GalNAc
# Outline: as §1
# [21] = target: GlcNAc(b1-3)Gal(b1-4)GlcNAc(b1-6)[GlcNAc(b1-3)Gal(b1-3)]GalNAc
# Outline: as §1
# [22] = target: GlcNAc(b1-3)Gal(b1-4)GlcNAc(b1-6)[GlcNAc(b1-3)]Gal(b1-4)GlcNAc
# Outline: as §1
# [23] = target: GlcNAc(b1-3)GalNAc
# Outline: as §1
binder,measurement,setting,value
"NPA (Narcissus pseudonarcissus), C0HM45 (protein) DNILYSGETLSPGEFLNNGRYVFIMQEDCNLVLYDVDKPIWATNTGGLDRRCHLSMQSDGNLVVYSPRNNPIWASNTGGENGNYVCVLQKDRNVVIYGTARWATGTNIH",glycan array binding signal (z-score),[1],-0.134
same,glycan array binding signal (z-score),[2],-0.157
same,glycan array binding signal (z-score),[3],-0.154
same,glycan array binding signal (z-score),[4],-0.101
same,glycan array binding signal (z-score),[5],0.025
same,glycan array binding signal (z-score),[6],-0.038
same,glycan array binding signal (z-score),[7],-0.159
same,glycan array binding signal (z-score),[8],0.057
same,glycan array binding signal (z-score),[9],-0.065
same,glycan array binding signal (z-score),[10],0
same,glycan array binding signal (z-score),[11],-0.096
same,glycan array binding signal (z-score),[12],-0.041
same,glycan array binding signal (z-score),[13],0.035
same,glycan array binding signal (z-score),[14],-0.062
same,glycan array binding signal (z-score),[15],-0.07
same,glycan array binding signal (z-score),[16],-0.003
same,glycan array binding signal (z-score),[17],-0.139
same,glycan array binding signal (z-score),[18],-0.118
same,glycan array binding signal (z-score),[19],-0.101
same,glycan array binding signal (z-score),[20],-0.143
same,glycan array binding signal (z-score),[21],-0.131
same,glycan array binding signal (z-score),[22],-0.141
same,glycan array binding signal (z-score),[23],-0.146
